Tests used:
Type in all cases: biochemical
Conditions in all cases: 4-mer peptides, fraction modified (0-1)
[1] = test system: N-glycosyltransferase from Escherichia coli
[2] = test system: N-glycosyltransferase from Haemophilus dureyi
[3] = test system: N-glycosyltransferase from Mannheimia haemolytica
[4] = test system: N-glycosyltransferase from Haemophilus influenza

Substance | MO[…] [1] | MO[…] [2] | MO[…] [3] | MO[…] [4]
INVS | 0.5416 |  |  | 
ANVS | 0.5643 | 0.5667 | 0.6726 | 0.3783
ANAT |  | 0.7355 | 0.8731 | 0.8571
ANLT |  | 0.4251 | 0.7243 | 0.2953
PNYS | 0.735 | 0.1186 |  | 0.1361
VNVS | 0.5169 |  |  | 
TNVT | 0.1564 | 0.5375 | 0.8351 | 0.1906
SNIS | 0.5901 |  |  | 
PNYT | 0.5173 | 0.6056 | 0.8592 | 0.4332
NNIT | 0.2501 |  |  | 
GNYT |  | 0.09302 | 0.5748 | 
NNMT |  |  |  | 0.07136
NNRT |  | 0.2318 | 0.8101 | 0.1068
LNIS | 0.7316 |  |  | 
ANFS | 0.3462 |  |  | 
ANLS | 0.2798 |  |  | 0.06044
SNMT |  | 0.1578 | 0.5815 | 
GNVS | 0.5613 | 0.0861 |  | 
SNHT |  | 0.5732 | 0.8335 | 0.1343
MNST |  |  | 0.4619 | 
ANAS |  | 0.09516 |  | 0.05166
PNLS | 0.6274 |  |  | 0.1658
TNST |  | 0.2587 | 0.6244 | 
WNRT |  | 0.179 | 0.8021 | 

Substance | MO[…] [1] | MO[…] [2] | MO[…] [3] | MO[…] [4]
FNHT | 0.1591 |  |  | 0.06027
ENHT |  |  | 0.4691 | 
VNIT | 0.3983 | 0.2427 | 0.5212 | 0.2424
LNFS | 0.34 |  |  | 
LNMT |  |  |  | 0.08996
PNGT | 0.193 | 0.1306 |  | 
GNWT |  | 0.623 | 0.8825 | 0.1263
WNAT |  | 0.3664 | 0.8785 | 0.2216
VNLT | 0.1992 |  |  | 0.06502
ANWT |  |  | 0.4749 | 
INIT | 0.4002 |  |  | 0.08285
MNAT |  | 0.1035 | 0.7069 | 0.05085
SNAT |  | 0.4858 | 0.8503 | 0.1214
VNFS | 0.3254 |  |  | 
NNYT |  | 0.104 | 0.5404 | 
NNHT |  | 0.4136 | 0.7199 | 0.1401
VNRT |  |  | 0.4794 | 0.09507
ANYS | 0.3215 |  |  | 0.06598
SNHS |  | 0.1043 |  | 
MNVT |  | 0.2148 | 0.7306 | 0.2572
FNGS | 0.3834 |  |  | 
MNIT | 0.215 | 0.1797 | 0.7649 | 0.4326
GNLS | 0.2519 |  |  | 
VNIS | 0.828 |  |  | 

Substance | MO[…] [1] | MO[…] [2] | MO[…] [3] | MO[…] [4]
INHS | 0.3598 |  |  | 
MNVS | 0.4349 |  |  | 
VNVT | 0.3003 | 0.3151 | 0.7102 | 0.161
HNHS |  |  |  | 0.06865
YNVT |  |  | 0.4902 | 0.07614
PNAT | 0.1833 | 0.7506 | 0.8652 | 0.6033
ENST |  | 0.1377 | 0.5946 | 
VNMS | 0.5181 |  |  | 
ANHS | 0.2178 | 0.255 |  | 0.08916
MNHS | 0.493 |  |  | 
NNTT |  | 0.2295 | 0.6414 | 
TNAT |  | 0.3044 | 0.7335 | 0.06444
LNRT |  |  | 0.4577 | 0.07143
HNVS |  |  |  | 0.1771
PNQT |  | 0.08606 | 0.5452 | 0.06199
TNTT |  | 0.1307 |  | 
VNST |  | 0.1233 | 0.5229 | 
ENRT |  |  | 0.5844 | 
GNYS | 0.1558 |  |  | 
PNST |  | 0.6225 | 0.8397 | 0.226
WNTT |  |  | 0.5588 | 
YNAT | 0.5282 |  |  | 
TNHS |  | 0.08204 |  | 
SNGS | 0.1786 |  |  | 

Substance | MO[…] [1] | MO[…] [2] | MO[…] [3] | MO[…] [4]
LNVT | 0.3079 | 0.1199 | 0.5358 | 0.06907
WNIT |  |  | 0.7381 | 
PNWS | 0.3348 |  |  | 
PNRS | 0.2652 |  |  | 
SNST |  | 0.2143 | 0.6484 | 
FNAT |  |  |  | 0.221
WNYT |  |  | 0.4763 | 
FNVT |  |  | 0.4869 | 0.1217
PNMS | 0.7536 | 0.1322 |  | 0.1618
FNGT | 0.1939 |  |  | 
HNYT |  |  |  | 0.04899
HNIT |  |  | 0.5791 | 0.1346
ANRS | 0.1581 |  |  | 
INTVS |  |  |  | 0.07728
WNMT |  |  | 0.561 | 0.1022
NNIS | 0.4086 |  |  | 
TNHT |  | 0.4918 | 0.7398 | 0.1278
SNTT |  | 0.2201 | 0.6618 | 
YNGT | 0.1762 |  |  | 
PNTT |  | 0.6623 | 0.8305 | 0.2798
GNHS | 0.1945 |  |  | 
PNHS | 0.4372 | 0.1562 |  | 0.09465
MNRT |  |  | 0.5451 | 
ANGS | 0.3324 |  |  | 

Substance | MO[…] [1] | MO[…] [2] | MO[…] [3] | MO[…] [4]
ANRT |  | 0.4079 | 0.8535 | 0.4157
SNFT |  |  | 0.5376 | 
INVT | 0.2088 |  | 0.5547 | 0.3731
PNFS | 0.6983 |  |  | 0.05968
LNMS | 0.2128 |  |  | 
YNGS | 0.2918 |  |  | 
RNHT |  |  |  | 0.05408
SNRT |  | 0.1781 | 0.7222 | 
SNYT |  | 0.1522 | 0.6871 | 0.07481
VNHT |  | 0.1091 |  | 
MNHT | 0.1658 | 0.1689 | 0.7567 | 
WNHT |  | 0.3986 | 0.8106 | 0.1403
GNFS | 0.1529 |  |  | 
TNMS | 0.2213 |  |  | 
NNHS |  | 0.1079 |  | 
PNTS |  | 0.09756 |  | 0.05223
HNAT |  | 0.1623 | 0.6883 | 0.1576
MNIS | 0.4774 |  |  | 
GNHT |  | 0.2328 | 0.7439 | 
WNGT | 0.4757 |  |  | 
ENVT |  | 0.1137 | 0.663 | 
PNGS | 0.5121 |  |  | 
QNVT |  |  | 0.5232 | 
LNHS | 0.5282 |  |  | 

Substance | MO[…] [1] | MO[…] [2] | MO[…] [3] | MO[…] [4]
ANQT |  | 0.08837 | 0.5507 | 0.05717
ANTT |  | 0.5802 | 0.8112 | 0.1412
LNIT | 0.3587 |  |  | 0.06229
VNYS | 0.3816 |  |  | 
TNIS | 0.5324 |  |  | 
LNYT | 0.157 |  |  | 
FNHS | 0.2661 |  |  | 
LNHT | 0.199 |  |  | 
ANST |  | 0.6067 | 0.8245 | 0.1596
WNGS | 0.5843 |  |  | 
YNRT |  |  |  | 0.07918
ANKT |  | 0.0857 |  | 0.06642
VNLS | 0.3417 |  |  | 
INIS | 0.2707 |  |  | 
HNMT |  |  |  | 0.08944
LNYS | 0.2036 |  |  | 
SNLT |  | 0.08552 |  | 0.04837
GNIT | 0.3759 | 0.1717 | 0.5112 | 
PNAS | 0.1797 | 0.08678 |  | 
ANYT |  | 0.5683 | 0.9647 | 0.2511
NNST |  | 0.1878 | 0.6601 | 
HNRT |  |  | 0.6126 | 0.1674
ANMS | 0.4469 |  |  | 
TNMT |  | 0.08477 |  | 

Substance | MO[…] [1] | MO[…] [2] | MO[…] [3] | MO[…] [4]
INMT |  |  |  | 0.1791
SNGT |  | 0.1056 |  | 
HNTT |  |  | 0.4958 | 0.08002
GNAT |  | 0.1198 | 0.5492 | 
SNMS | 0.2531 |  |  | 
PNKT |  | 0.1186 |  | 0.1104
TNNT |  | 0.136 |  | 
VNHS | 0.2071 |  |  | 
LNVS | 0.55 |  |  | 
VNFT | 0.1644 |  |  | 
NNAT |  | 0.6019 | 0.8179 | 0.3811
LNLT |  |  |  | 0.09507
SNYS | 0.1892 |  |  | 
GNMS | 0.1652 |  |  | 
WNST |  |  | 0.6108 | 
ANGT |  | 0.1381 | 0.4631 | 
NNVS | 0.205 | 0.08844 |  | 0.06
GNIS | 0.566 |  |  | 
ANFT |  | 0.467 | 0.8662 | 0.4619
MNLT |  |  | 0.5491 | 0.2478
TNVS | 0.3801 | 0.08794 | 0.5462 | 
